Data taken from PubChem BioAssay AID1963576 (National Center for Advancing Translational Sciences (NCATS), 2024).
Out of some 46,000 compounds screened, about 60 (0.1%) were called active. Not shown: some 3% with an inconclusive outcome. Calls follow the shape of the dose curve; as a rule, active = well fitted inhibition curve with a large enough effect; inconclusive = small, poorly fitted or top-dose-only effect; inactive = no such curve, though single readings can be large or run the other way. Some of the results follow.

Assay: Primary qHTS assay for Inhibitors of ovarian cancer metastasis using an organotypic tumor microenvironment (TME) model. Also: nearly all actives have a fitted effect of over 65% in size.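 As to activity change, negative = inhibition: plate controls were DMSO wells for no effect and tomatine positive control wells for full effect.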
Details: SKOV3ip1-GFP adhesion/invasion on 3D omental model, fluorescence; series mostly up to 45.8 µM; activity change, negative = inhibition: at the top concentration
Summary of the method: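 Adhesion/invasion was scored as fixed GFP-labeled SKOV3ip1 cell counts (488/509 nm), normalized to DMSO and tomatine controls. Cancer cells in serum-free medium, with four compound doses (0.36-46 umol/L), sat 2 hr at RT then 16 hr at 37 C on a 48 hr fibroblast/mesothelial/ECM culture.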

Activity change, negative = inhibition, inactive:
CCOc1ccc(-c2nc3ccccc3c(=O)o2)cc1 4.7%
Cc1ccc(Nc2cc(C)nc3nncn23)c(C)c1 1.43%
Cn1cc(-c2cc3n(n2)CCC(=O)N3CCCC(=O)NCc2ccccc2Cl)c2ccccc21 1.99%
Cc1cc(C)cc(Nc2nc3cc(Cl)c(Cl)cc3nc2-n2nc(C)cc2C)c1 5.94%
O=c1[nH]c(C2CCCN(S(=O)(=O)c3ccccc3)C2)nc2c1nnn2Cc1ccc(OC(F)(F)F)cc1 (configuration not stated) 19.6%
O=C(C1CCC(Cn2c(=O)c3sccc3n(Cc3ccc(F)cc3)c2=O)CC1)N1CCOCC1 (configuration not stated) 1.06%
CN1C(=O)C2(c3ccccc31)N(c1ccc(Br)cc1)C(=O)CS2(=O)=O (configuration not stated) -5.26%
COc1ccc2c(c1)-c1nc(NC(=O)c3cc(OC)c(OC)c(OC)c3)sc1CC2 -9.84%
CCc1ccc2oc(C(=O)NCc3ccccc3)cc(=O)c2c1 12.3%
Cc1ccc(NC(=O)Cn2c(-c3nonc3N)nc3ccccc32)c(Br)c1 -11.9%
CCCCOc1ccc(C2C(=O)N(C3CCCCC3)CC(=O)N2CCCC)cc1 (configuration not stated) 4.86%
Cc1ccc(-n2ncc(C(=O)NCCCN3CCc4ccccc4C3)c2C2CCN(C(=O)OC(C)(C)C)CC2)c(C)c1 -3.29%
COc1cccc(CNC(=O)Cn2nc(N3CCN(c4ccccc4OC)CC3)ccc2=O)c1 4.14%
CCOc1ccc(-n2c(=O)c3c(C)c(C)sc3n(Cc3ccccc3C)c2=O)cc1 0.159%
Cc1c(Cl)cccc1NC(=O)C(C)n1c(=O)cc(C)c2c(C)nn(-c3ccccc3)c21 (configuration not stated) 0.824%
COc1cccc(CNC(=O)Nc2cc(C(=O)NCc3cccc(F)c3)ccc2N2CCCC2)c1 0.49%
CCC(Oc1ccc(F)cc1)C(=O)Nc1cc(-c2ccc(C)cc2)no1 (configuration not stated) 0.219%
CCOc1ccc(NC(=O)CC2C(=O)N(c3cccc(OC)c3)C(=O)N2C2CCCCC2)cc1 (configuration not stated) 1.25%
Cn1c(=O)c2ccccc2n2c(CCC(=O)N3CCN(c4cccc(Cl)c4)CC3)nnc12 19.8%
CCN(CC)c1ccc(NC(=O)c2cc(CN3CCCC3)on2)c(C)c1 12.2%
Cc1ccc(C(=O)NCC(=O)OCc2cc(=O)n3nc(C4CCCCC4)sc3n2)cc1 3.28%
CCOc1ccc(NC(=O)Cn2nnc(C(=O)OC)c2C(=O)OC)cc1 0.919%
COc1ccc(Cn2c(SCC(=O)NCc3ccccc3)nc3ccccc32)cc1 -7.25%
CCCCn1c(Oc2cccc(C(=O)OC)c2)nc2c1c(=O)n(C)c(=O)n2C -2.15%
CCN1CCN(c2csc3ccc(Cl)cc3c2=O)CC1 1.35%
Cc1cccc(NC(=O)CSc2nc(-c3cccs3)cc(C(F)(F)F)c2C#N)c1 -6.82%
COc1ccc(Cl)cc1NC(=O)C(C)n1nnc2sc3c(c2c1=O)CCCC3 (configuration not stated) 6.21%
COc1ccccc1C(=O)Nc1cc(-c2cccc(Br)c2)nn1-c1ccccc1 -0.432%
Cc1cc(C)cc(N2C(=O)CC(c3ccc(C(F)(F)F)cc3)C3=C2COC3=O)c1 (configuration not stated) 6.46%
COc1ccc2c(C)c(CC(=O)NCCc3ccccc3)c(=O)oc2c1OC 3.29%
O=c1oc2ccc3ccccc3c2cc1-c1nnc(Nc2ccccc2)s1 9.12%
CCc1cccc(NC(=O)Cn2nc(CC)n3c(cc4cc(C)ccc43)c2=O)c1 2.46%
Cc1ccc2c(c1)C(c1ccc(F)cc1)N(C(=O)C(C)C)CC(=O)N2 (configuration not stated) -44.9%
COc1ccc(C(=O)NC2(C(F)(F)F)C(=O)NC(C)=C2C#N)cc1 (configuration not stated) -12.2%
COc1cc(NC(=O)c2nc3cc(C)c(C)cc3n(C)c2=O)cc(OC)c1OC 41.5%
Cc1ccc(CCNC(=O)c2sc3ncccc3c2-n2cccc2)cc1 -8.87%
COc1cccc(NC(=O)CSc2nc(O)c(C/C=C/c3ccccc3)c(=O)[nH]2)c1 2.35%
Cc1cc(S(=O)(=O)Nc2cccc(-c3ccc(N4CCOCC4)nn3)c2)c(C)cc1Cl 17.1%
Cc1ccc(C)c(CN2C(=O)c3ccccc3Sc3ccc(C(=O)NCc4ccco4)cc32)c1 -1.6%
Cc1cccc(OCc2ccc(-c3nc(C#N)c(N4CCN(c5ccccc5)CC4)o3)o2)c1 5.68%
COC(=O)c1c(-c2cccs2)csc1NC(=O)c1cc(OC)cc(OC)c1 8.94%
Cc1cc(Cl)ccc1NC(=O)CCS(=O)(=O)c1cc2c(cc1C)NC(=O)CO2 -11.1%
Cc1cc(C)cc(NC(=O)C(Cc2ccccc2)N2Cc3ccccc3C2=O)c1 (configuration not stated) -11.2%

outcome, inactive:
CCOC(=O)c1cccc(NC(=O)[C@H](CSCc2ccccc2)N2Cc3ccccc3C2=O)c1
CCOC(=O)c1c(NC(=O)c2ccc(F)cc2)sc2c1CCC(CC)C2 (configuration not stated)
CC(C)CCn1c(SCc2cccc(F)c2)nc2ccsc2c1=O
CN1C(=O)c2[nH]nc(-c3ccc(F)cc3)c2C1c1cccc(O)c1 (configuration not stated)
Cc1cc(C)cc(C(=O)N2CC(=O)Nc3ccc(Br)cc3C2c2ccccc2)c1 (configuration not stated)
CCCCN(CC)CCCNC(=O)c1ccc2c(c1)NC(=O)CN2C
Cc1ccc(OCCOCCn2c(-c3ccc(Cl)cc3)nc3ccccc3c2=O)cc1
COc1cccc(CNC(=O)CCc2c(C)c3ccc(O)c(C)c3oc2=O)c1
CCOC(=O)c1noc2ncn(CC(=O)Nc3ccccc3OC)c(=O)c12
COc1ccc(-n2c(SCc3ccccc3)nc3c([nH]c4ccccc43)c2=O)cc1
COc1ccc2c(c1)CCc1c(C(=O)Nc3ccc(C#N)cc3)noc1-2
COc1ccc(C)cc1NC(=O)CN1C(=O)COc2ccc(S(=O)(=O)N3CCC(C)CC3)cc21
CCNC(=O)CCSc1nnc(-c2ccc(O)cc2)o1
CCOc1cc(CNC(=O)c2ccc(NC(=O)c3nsc4ccccc34)cc2)ccc1OC
CCC(=O)Nc1cc(C(=O)NCc2ccc(C)cc2)ccc1S(=O)(=O)c1ccc(C)cc1
COc1ccc(N2CCN(S(=O)(=O)c3ccc(-c4cc(C(F)(F)F)on4)s3)CC2)cc1
CCc1cccc(C)c1Nc1c(-c2ccc(N(C)C)cc2)nc2ncccn12
Cc1cc(C)c2oc(C(=O)Nc3c(C(=O)c4ccc(F)cc4)oc4ccccc34)cc(=O)c2c1
CCN(CC)c1ccc(NC(=O)Cn2c(C)c3cnn(-c4ccccc4)c(=O)c3c2C)c(C)c1
